Assay [1] deals with T1, CD86-FLAG-GPI (human).
T1 construct: also called CHO-K1/CD86 cells
T1 chain: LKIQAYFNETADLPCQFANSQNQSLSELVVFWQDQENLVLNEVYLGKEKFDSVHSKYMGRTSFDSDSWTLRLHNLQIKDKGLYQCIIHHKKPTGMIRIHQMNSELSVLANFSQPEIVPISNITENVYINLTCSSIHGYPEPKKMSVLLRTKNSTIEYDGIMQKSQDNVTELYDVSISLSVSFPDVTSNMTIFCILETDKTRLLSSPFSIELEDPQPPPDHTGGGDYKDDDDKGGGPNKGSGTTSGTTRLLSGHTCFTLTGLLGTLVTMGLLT
As to the kind of experiment: flow cytometry on CHO-K1/CD86 cells, binder at 500 ng/ml. As for the experimental part: (§1) Purified test samples (HuABC2-CH3-CTLA4YE, HuABC2-Ck-CTLA4YE, HuABC2-CTLA4YE-VH, and HuABC2-CTLA4YE-Vk) and belatacept, starting at 10 μg/mland five steps of 4-fold serial dilutions, were incubated with CHO-K1/CD80 or CHO-K1/CD86 cells in FACS Buffer (PBS containing 0.5% BSA and 0.05% sodium azide) for 30 min at 4° C. After washing with FACS Buffer, cells were incubated with PE-labeled goat anti-human IgG antibody (SouthernBiotech, Birmingham, Ala.) in FACS Buffer for 20 min at 4° C. After washing and suspension in FACS Buffer, stained cells were subjected to flow cytometry.
(§2) The two expression vectors (pHC644 and pHC645) were individually transfected into HEK293 cells as described above. Their expression level in culture supernatants was measured by sandwich ELISA as described above. Binding of HuABC77D-CH3-CTLA4YE and HuABC77D-CTLA4YE-VH to CHO-K1/CD80 and CHO-K1/CD86 cells was analyzed by flow cytometry as described above. Belatacept was used as a reference for binding to CD80 and CD86. The test samples were used at 500 ng/ml and four steps of 3-fold serial dilutions.
(§3) The results of binding to CHO-K1/CD80 and CHO-K1/CD86 cells are shown in FIGS. 13A and B, respectively.
On the technique in general: In flow cytometry, cells or beads pass a laser one at a time.

Assay [2] concerns the target T2, CD80-FLAG-GPI (human).
T2 construct: also called CHO-K1/CD80 cells
T2 chain: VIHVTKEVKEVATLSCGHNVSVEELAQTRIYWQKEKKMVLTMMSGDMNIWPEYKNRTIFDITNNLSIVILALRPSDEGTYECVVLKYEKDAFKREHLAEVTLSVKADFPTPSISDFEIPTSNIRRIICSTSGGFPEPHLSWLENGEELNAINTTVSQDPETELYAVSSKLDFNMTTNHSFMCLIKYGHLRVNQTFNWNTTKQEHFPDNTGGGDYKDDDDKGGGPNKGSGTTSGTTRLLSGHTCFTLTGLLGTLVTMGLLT
As to the kind of experiment: flow cytometry on CHO-K1/CD80 cells, binder at 500 ng/ml. The procedure: as §1, §2, §3

The target of assay [3] is T3, Human IL-2R beta/CD122 Protein, Fc Tag (human, UniProt P14784 27-239).
T3 construct: Bought protein coated on the ELISA plate; also called Cat. No. ILB-H5253, Acro Biosystems; not shown: Fc tag of the bought protein
T3 sequence (looked up): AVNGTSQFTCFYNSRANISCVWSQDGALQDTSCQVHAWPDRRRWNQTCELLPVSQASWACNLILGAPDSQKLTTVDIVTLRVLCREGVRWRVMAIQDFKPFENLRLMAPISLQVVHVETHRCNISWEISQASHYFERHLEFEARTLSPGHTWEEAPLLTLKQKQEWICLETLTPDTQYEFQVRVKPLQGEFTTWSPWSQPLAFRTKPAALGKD
Briefly: ELISA, plate coated with 1 µg/ml CD122 Fc tag protein, binder from 0.5 µg/ml in 2-fold dilutions, anti-human kappa-HRP. As for the experimental part: (§4) Binding of HuABC2-CTLA4 and HuABC2-CTLA4YE to human CD122, CD80 and CD86 was analyzed by ELISA. Wells of an ELISA plate were coated with 1 μg/ml of either CD122 (Human IL-2R beta/CD122 Protein, Fc Tag; Cat. No. ILB-H5253, Acro Biosystems, Newark, Del.), CD80 (Human B7-1/CD80 Protein, Mouse IgG2a Tag; Cat. No. B71-H52A4, Acro Biosystems) or CD86 (Human B7-2/CD86 Protein, Fc Tag; Cat. No. CD6-H5257, Acro Biosystems) in PBS. After blocking with Blocking Buffer and washing the wells with Wash Buffer, transiently expressed HuABC2-CTLA4 and HuABC2-CTLA4YE at 0.5 μg/ml and serial 2-fold dilutions in ELISA Buffer were applied to the wells in duplicates. Purified HuABC2 at 0.5 μg/mland serial 2-fold dilutions was used as a control. After incubation for 1 hr at room temperature and washing with Wash Buffer, bound antibodies were detected using HRP-conjugated goat anti-human kappa chain polyclonal antibody. After incubation for 30 min and washing with Wash Buffer, color development was initiated by adding ABTS substrate and stopped with 2% oxalic acid. Absorbance was read at 405 nm.
In general terms: ELISA stands for enzyme-linked immunosorbent assay.

The target in assay [4] is T4, Human B7-2/CD86 Protein, Fc Tag (human, UniProt P42081 24-247).
T4 construct: Bought protein coated on the ELISA plate; also called Cat. No. CD6-H5257, Acro Biosystems; not shown: Fc tag of the bought protein
T4 sequence (looked up): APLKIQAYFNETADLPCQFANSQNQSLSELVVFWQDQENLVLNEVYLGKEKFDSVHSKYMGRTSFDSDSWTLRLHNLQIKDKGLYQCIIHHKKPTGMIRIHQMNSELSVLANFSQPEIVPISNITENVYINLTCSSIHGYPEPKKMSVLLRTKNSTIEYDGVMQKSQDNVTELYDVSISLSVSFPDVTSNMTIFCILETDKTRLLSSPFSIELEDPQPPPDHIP
As to the kind of experiment: ELISA, plate coated with 1 µg/ml CD86 Fc tag protein, binder from 0.5 µg/ml in 2-fold dilutions, anti-human kappa-HRP. As for the experimental part:
as §4

Assay [5] addresses T5, Human B7-1/CD80 Protein, Mouse IgG2a Tag (human, UniProt P33681 35-242).
T5 construct: Bought protein coated on the ELISA plate; also called Cat. No. B71-H52A4, Acro Biosystems; not shown: mouse IgG2a tag of the bought protein
T5 sequence (looked up): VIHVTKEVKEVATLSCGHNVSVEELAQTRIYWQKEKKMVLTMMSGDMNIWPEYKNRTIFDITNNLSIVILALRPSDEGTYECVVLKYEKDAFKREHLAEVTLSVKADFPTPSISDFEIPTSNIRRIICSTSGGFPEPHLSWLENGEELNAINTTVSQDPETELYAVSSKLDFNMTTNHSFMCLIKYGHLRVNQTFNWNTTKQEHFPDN
Briefly: ELISA, plate coated with 1 µg/ml CD80 mouse IgG2a tag protein, binder from 0.5 µg/ml in 2-fold dilutions, anti-human kappa-HRP. The procedure:
as §4

Assay [6] addresses T1, CD86-FLAG-GPI. Briefly: flow cytometry on CHO-K1/CD86 cells, binder at 200 ng/ml. As for the experimental part: as §1
(§5) The two expression vectors (pHC642 and pHC630) were individually transfected into HEK293 cells as described above. Their expression level in culture supernatants was measured by sandwich ELISA as described above. Binding of transiently expressed HuABC101-CTLA4YE-VH and HuABC101-CH3-CTLA4YE to CD80 and CD86 was analyzed by flow cytometry as described above. Belatacept was used as a reference for binding to CD80 and CD86.
(§6) Binding of HuABC101-CH3-CTLA4YE to each of CD80 and CD86 was much weaker than the binding of HuABC101-CTLA4YE-VH.

The target of assay [7] is T2, CD80-FLAG-GPI. Briefly: flow cytometry on CHO-K1/CD80 cells, binder at 200 ng/ml. As for the experimental part:
as §1, §5, §6

Assay [8] addresses T2, CD80-FLAG-GPI. Briefly: flow cytometry on CHO-K1/CD80 cells, binder at 625 ng/ml, PE anti-human IgG. The procedure:
(§7) CHO-K1 stable transfectants expressing CD80-FLAG-GPI (CHO-K1/CD80) and CD86-FLAG-GPI (CHO-K1/CD86) were generated by electroporation with pFCm553 and pFCm554, respectively, as described above. Binding of HuABC2-CH3-CTLA4YE, HuABC2-Ck-CTLA4YE, HuABC2-CTLA4YE-VH and HuABC2-CTLA4YE-Vk to CHO-K1/CD80 and CHO-K1/CD86 cells was analyzed by flow cytometry. Belatacept (also known as LEA29Y and Nulojix; SEQ ID NO:49), which is a CTLA4-Ig fusion protein carrying a substitution of an alanine residue to a tyrosine residue at position 29 (A29Y) and another substitution of a leucine residue to a glutamate residue at position 104 (L104E) of SEQ ID NO:10 (Larsen et al., Am. J. Transplant. 5:443-453, 2005; Oshima et al., Protein Eng. Des. Sel. 29:159-167, 2016), was purchased from Creative Biomart (Cat. No. THP-0109, Shirley, N.Y.) and used as a reference in the experiments.
as §1
The binding patterns of HuABC2-CH3-CTLA4YE, HuABC2-Ck-CTLA4YE, HuABC2-CTLA4YE-VH, HuABC2-CTLA4YE-Vk and belatacept to CHO-K1/CD80 cells are shown in FIG. 9A. While the binding of each of HuABC2-CTLA4YE-VH and HuABC2-CTLA4YE-Vk to CD80 was only slightly weaker than the binding of belatacept, the binding of HuABC2-CH3-CTLA4YE and HuABC2-Ck-CTLA4YE was a lot weaker than that of belatacept.

The target in assay [9] is T1, CD86-FLAG-GPI. As to the kind of experiment: flow cytometry on CHO-K1/CD86 cells, binder at 625 ng/ml, PE anti-human IgG. The procedure: as §7, §1
The binding patterns of HuABC2-CH3-CTLA4YE, HuABC2-Ck-CTLA4YE, HuABC2-CTLA4YE-VH, HuABC2-CTLA4YE-Vk and belatacept to CHO-K1/CD86 cells are shown in FIG. 9B. Like the case with CHO-K1/CD80 cells, while the binding of each of HuABC2-CTLA4YE-VH and HuABC2-CTLA4YE-Vk to CD86 was only slightly weaker than the binding of belatacept, the binding of HuABC2-CH3-CTLA4YE and HuABC2-Ck-CTLA4YE was a lot weaker than the binding of belatacept.

B1: HuABC77D-CH3-CTLA4YE (other)
heavy: EVQLVESGGGLVQPGGSLRLSCAASGFDFSRYWMSWVRQAPGKGLEWIGEINPDSSTINYAPSLKDRFTISRDNAKNSLYLQMNSLRAEDTAVYYCARHDYDEGIYFDYWGQGTTVTVSSASTKGPSVFPLAPSSKSTSGGTAALGCLVKDYFPEPVTVSWNSGALTSGVHTFPAVLQSSGLYSLSSVVTVPSSSLGTQTYICNVNHKPSNTKVDKKV[gap - human IgG1 Fc with changes]SGGGGSGMHVAQPAVVLASSRGIASFVCEYASPGKYTEVRVTVLRQADSQVTEVCAATYMMGNELTFLDDSICTGTSSGNQVNLTIQGLRAMDTGLYICKVELMYPPPYYEGIGNGTQIYVIDPEPCPDSD
light: DIQMTQSPSSLSASVGDRVTITCSASSRVIYMHWYQQKPGKAPKRWIYDTSKLASGVPSRFSGSGSGTEFTLTISSLQPEDFATYYCQQWSSNPPTFGGGTKVEIKRTVAAPSVFIFPPSDEQLKSGTASVVCLLNNFYPREAKVQWKVDNALQSGNSQESVTEQDSKDSTYSLSSTLTLSKADYEKHKVYACEVTHQGLSSPVTKSFNRGEC
notes: Bifunctional molecule: linker and variant CTLA-4 extracellular domain fused to the C-terminus of the HuABC77D heavy chain; encoded by pHC645; transient HEK293 supernatant
For the molecule B1, the “mean channel fluorescence (MCF)” value with CD86-FLAG-GPI [1] worked out at 118; with CD80-FLAG-GPI [2], 1810.

B2: HuABC2-CTLA4 (other)
heavy: EVQLVESGGGLVQPGGSLRLSCAASGFTFSDFYMEWVRQAPGKGLEWIAASRNKANDYTTEYSASVKGRFIVSRDDSKNSLYLQMNSLKTEDTAVYYCARSYYRYDGMDYWGQGTTVTVSSASTKGPSVFPLAPSSKSTSGGTAALGCLVKDYFPEPVTVSWNSGALTSGVHTFPAVLQSSGLYSLSSVVTVPSSSLGTQTYICNVNHKPSNTKVDKKV[gap - human IgG1 Fc with changes]SGGGGSGMHVAQPAVVLASSRGIASFVCEYASPGKATEVRVTVLRQADSQVTEVCAATYMMGNELTFLDDSICTGTSSGNQVNLTIQGLRAMDTGLYICKVELMYPPPYYLGIGNGTQIYVIDPEPCPDSD
light: EIVLTQSPATLSLSPGERATLSCSAISSVSYMYWYQQKPGQAPRLLIYDTSNLVSGVPARFSGSGSGTDYTLTISSLEPEDFAVYYCQQWNTYPYTFGGGTKVEIKRTVAAPSVFIFPPSDEQLKSGTASVVCLLNNFYPREAKVQWKVDNALQSGNSQESVTEQDSKDSTYSLSSTLTLSKADYEKHKVYACEVTHQGLSSPVTKSFNRGEC
notes: encoded by pHC624; tested as transient HEK293 culture supernatant
Consider B2, for which the binding result in assay [3], in [4] and in assay [5] was “binds” each time.

B3: Belatacept (Fc fusion)
chain: MHVAQPAVVLASSRGIASFVCEYASPGKYTEVRVTVLRQADSQVTEVCAATYMMGNELTFLDDSICTGTSSGNQVNLTIQGLRAMDTGLYICKVELMYPPPYYEGIGNGTQIYVIDPEPCPDSDQ[gap - human IgG1 Fc with changes]
notes: Human CTLA-4 extracellular domain with A29Y and L104E fused to the Fc region of human gamma-1 heavy chain; bought from Creative Biomart (Cat. No. THP-0109); also called LEA29Y; Nulojix
On to B3, for which the “mean channel fluorescence (MCF)” value with CD86-FLAG-GPI [6] worked out at 917; with CD86-FLAG-GPI [1], 723; with CD80-FLAG-GPI [2], 4390; with CD80-FLAG-GPI [7], 1880; in the assay with CD80-FLAG-GPI [8] it was 1580; in the assay with CD86-FLAG-GPI [9] it was 1180.

These data come from patent US20220306753A1 (JN BIOSCIENCES, published 2022).
